For 34 compounds, activity change, negative = inhibition results are on record in PubChem BioAssay AID1745853 (National Center for Advancing Translational Sciences (NCATS), 2022).

The structures appear in SMILES notation. This is one part of the list. The main result of the screen is listed elsewhere. These columns were measured beside it and carry no call.

Assay in all cases: Primary Screen for Target Class Profiling of Small Molecule Inhibitors of Methyltransferases
In assay [1] the target is Glycine N-methyltransferase (Homo sapiens) (UniProt Q14749). The settings on record: purified enzyme, MTase-Glo SAH luminescence; measured here: GNMT inhibition; at 40 µM; stronger effect = lower value. The procedure, abridged:
(§1)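 Each enzyme was assayed with SAM and its substrate. SAH formation detected by MTase-Glo luminescence; single-point 40 uM screen[…].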

In assay [2] the target is Guanidinoacetate N-methyltransferase (Homo sapiens) (UniProt Q14353). The conditions noted are these: purified enzyme, MTase-Glo SAH luminescence; measured here: GAMT inhibition; at 40 µM; stronger effect = lower value. Summed up:
as §1

The target in assay [3] is Histamine N-methyltransferase (Homo sapiens) (UniProt P50135). The settings on record: purified enzyme, MTase-Glo SAH luminescence; measured here: HNMT inhibition; at 40 µM; stronger effect = lower value. Summed up:
as §1

Assay [4] deals with Nicotinamide N-methyltransferase (Homo sapiens) (UniProt P40261). The settings on record: purified enzyme, MTase-Glo SAH luminescence; measured here: NNMT inhibition; at 40 µM; stronger effect = lower value. The procedure, abridged: as §1
The target in assay [5] is Phenylethanolamine N-methyltransferase (Homo sapiens) (UniProt P11086). The settings on record: purified enzyme, MTase-Glo SAH luminescence; measured here: PNMT inhibition; at 40 µM; stronger effect = lower value. Summed up:
as §1
% is scaled to controls: 0 for no effect and ±100 for the full control effect.

As for `COC(=O)Cn1nc(-c2cccc(OC)c2)c2ccccc21`, the activity change, negative = inhibition in assay [1] is 0.391%; in assay [2], 2.32%; in assay [3], 9.62%; in assay [4], -12.4%; in assay [5], 1.41%.
For `COc1cccc(CN2CCN(C(=O)c3cnc4ccccn4c3=O)CC2=O)c1`, the activity change, negative = inhibition in assay [1] was -1.97%; in assay [2] it was -0.678%; in assay [3], 0.62%; in assay [4], -1.89%; in assay [5], -1.35%.
For `CCOC(=O)c1cc2n(n1)CC(C)(C(=O)NC1CCCCC1)N(c1cccc(CC)c1)C2=O` (stereo not given) the same measures were 4.36%, 0%, -5.71%, 3.36% and 5.08%.
The like results for `N#Cc1ccc(C(=O)Nc2ccc(=O)n3c2[C@@H]2C[C@@H](CN(C(=O)c4ccc(F)cc4)C2)C3)cc1` were, in that order, -8.5%, -9.31%, -5.07%, -8.46% and -2.15%.
With `C=CCn1c(=O)c2ccc(C(=O)NC(C)C)cc2n2c(=O)n(CC(=O)Nc3cccc(C)c3)nc12`, the activity change, negative = inhibition in assay [1] was found to be 4.32%; in assay [2] it was 0%; in assay [3] it was 4.99%; in assay [4] it was 3.24%; in assay [5], 3.58%.
The like results for `Cc1ccc(CCNS(=O)(=O)c2ccc3[nH]c(=O)[nH]c3c2)cc1` were, in that order, 13.8%, 0.206%, 12.2%, 0.637% and -0.877%.
The like results for `Cc1ccc(N2C(=O)c3cc4occc4n3CC2(C)C(=O)NC2CCCCCC2)c(C)c1` (stereo not given) were, in that order, -0.87%, 4.78%, 1.8%, 4.68% and -1.35%.
For `CCOC(=O)c1cc2n(n1)CC(C)(C(=O)NC1CCCCCC1)N(c1ccccc1OC)C2=O` (stereo not given) the same measures were 5.46%, 0%, 0.576%, 6.82% and 4.73%.
On to `CCCCN(CCCC)CC(O)c1cc(Cl)cc2c1-c1ccc(Cl)cc1/C2=C/c1ccc(Cl)cc1` (stereo not given), for which the activity change, negative = inhibition in assay [1] is -10.1%; in assay [2] it was 14.8%; in assay [3], 0.907%; in assay [4], -10.6%; in assay [5], 4.66%.
Consider `Cc1cn(-c2cc(NC(=O)c3ccc(C)c(Nc4nccc(-c5cccnc5)n4)c3)cc(C(F)(F)F)c2)cn1`, for which the activity change, negative = inhibition in assay [1] was -7.39%; in assay [2], 2.71%; in assay [3], -4.09%; in assay [4], -13%; in assay [5] it was -12.4%.
The like results for `CC1=C2C[C@H]3OC(=O)[C@H](O)[C@@]4(O)[C@@H](C)[C@@H](O)[C@H](O)C([C@@]2(C)[C@H](O)[C@@H](O)C1)[C@@]34C` (stereo not given in full) were, in that order, 4.13%, 5.86%, 8.46%, -5.97% and 3.02%.
For `CC1(C(=O)NC2CCCCCC2)Cn2c(ccc2-c2ccccc2)C(=O)N1Cc1ccccc1Cl` (stereo not given) the same measures were 4.79%, 0%, 2.28%, -6.26% and -0.681%.
The like results for `Cc1ccc(CSc2nnc3n(CC(C)C)c(=O)c4ccccc4n23)cc1` were, in that order, 3%, 8.25%, 5.98%, -1.86% and 4.36%.
As to `O=C1CC2(CCN(C(=O)c3ccc(Cl)cc3)CC2)Oc2cc(Cl)ccc21`, the activity change, negative = inhibition is -8.35% in assay [1]; -3.2% in assay [2]; -1.53% in assay [3]; -15.5% in assay [4]; 4% in assay [5].
The like results for `COc1cccc(NC(=O)Cn2c(=O)oc3cc(S(=O)(=O)N4CCC(C)CC4)ccc32)c1` were, in that order, -6.56%, -0.453%, -8.17%, -14.6% and -27.6%.
`C[C@@H]1O[C@@H](O[C@H]2[C@H](OC(=O)[C@]34CCC(C)(C)C[C@H]3C3=CCC5[C@@]6(C)CC[C@H](O[C@@H]7O[C@H](CO[C@@H]8OC[C@H](O)[C@H](O)[C@H]8O[C@@H]8OC[C@@H](O)[C@H](O)[C@H]8O)[C@@H](O)[C@H](O)[C@H]7O)C(C)(C)C6CC[C@@]5(C)[C@]3(C)C[C@H]4O)O[C@H](CO)[C@@H](O)[C@@H]2O)[C@H](O[C@@H]2O[C@H](CO)[C@@H](O)[C@H](O)[C@H]2O)[C@H](O)[C@H]1O[C@@H]1OC[C@@H](O)[C@H](O[C@@H]2OC[C@@H](O)[C@H](O)[C@H]2O)[C@H]1O` (stereo not given in full): the activity change, negative = inhibition in assay [1] is 3.67%; in assay [2], 9.81%; in assay [3], 6.75%; in assay [4], -1.42%; in assay [5] it was 3.75%.
For `CC1(C(=O)NC2CCCCCCC2)Cc2ccccc2C(=O)N1CCN1CCOCC1` (stereo not given) the same measures were 1.77%, 0%, 10.9%, 17.3% and 4.58%.
The like results for `O=C(Nc1ccc2c(c1)CN(CCc1ccc(F)cc1)C(=O)CO2)c1c(F)cccc1F` were, in that order, -4.87%, -5.98%, -11.6%, -4.35% and 2.99%.
For `Cc1ccc(S(=O)(=O)c2nnn3c2nc(N2CCOCC2)c2ccccc23)cc1`, the activity change, negative = inhibition in assay [1] was -14.1%; in assay [2], 4.58%; in assay [3] it was 1.26%; in assay [4], -4.13%; in assay [5] it was -8.16%.
The like results for `Cc1cccc(C(=O)N2CCOC(CCCc3ccccc3)C2)n1` (stereo not given) were, in that order, -0.527%, -2.55%, -1.35%, -2.7% and 0.468%.
As for `O=C(CCc1ccccc1)N1CCC(Cc2nncn2-c2ccccc2)C1` (stereo not given), the activity change, negative = inhibition is -5.65% in assay [1]; -3.03% in assay [2]; -0.833% in assay [3]; -7.51% in assay [4]; 10% in assay [5].
The like results for `C=CC1C(OC2OC(CO)C(O)C(O)C2O)OC=C2C(=O)N3C(C(=O)O)Cc4c([nH]c5ccccc45)C3CC21` (stereo not given) were, in that order, -0.206%, -0.824%, 5.85%, -10.8% and -3.68%.
For `CN(CCNC(=O)C1CCCCC(=O)N1Cc1ccccc1)C1CCCCC1` (stereo not given) the same measures were 0.059%, 1.56%, -1.61%, -3.6% and 10.6%.
Regarding `CCc1cc(=O)n(CC(=O)NCCc2ccc(Cl)cc2)c(N2CCOCC2)n1`, the activity change, negative = inhibition was 0.828% in assay [1]; 1.84% in assay [2]; 0.302% in assay [3]; -6.93% in assay [4]; 0.559% in assay [5].
For `COc1ccccc1CNC(=O)c1cc2n(n1)CC(C)(C(=O)NCCC(C)C)N(C)C2=O` (stereo not given) the same measures were 5.74%, 0%, 11.2%, 10.4% and 6.58%.
The like results for `CCC1Oc2ccc(NS(=O)(=O)c3ccc(Cl)cc3)cc2CN(Cc2ccc(F)cc2)C1=O` (stereo not given) were, in that order, -15.1%, -8.33%, -2.96%, -11.5% and -50.5%.
On to `CCNc1ncnc2sc3c(c12)CCN(C(=O)COC)C3`, for which the activity change, negative = inhibition in assay [1] is -12%; in assay [2], -7.65%; in assay [3] it was -2.52%; in assay [4] it was -24.8%; in assay [5] it was -24.3%.
The like results for `CCc1csc(CNC(=O)c2ccc(N(C)Cc3cnn(C)c3)nc2)n1` were, in that order, -3.99%, -0.105%, 0.697%, -5.02% and -19.1%.
For `CC[C@H]1CN(C(C)=O)CC[C@H]1CC(=O)Nc1ccccc1` the same measures were -1.42%, -0.549%, -0.21%, -0.281% and -0.17%.
For `O=C([C@@H]1C[C@H](F)CN1S(=O)(=O)Cc1ccccc1F)N1CCc2ccccc2C1` the same measures were -5.37%, 0.05%, 2.67%, -2.4% and -4.32%.
As for `COc1ccc(-c2cc(-c3ccncc3)cn3cncc23)cc1`, the activity change, negative = inhibition in assay [1] is -48.9%; in assay [2], -10.1%; in assay [3], -27.6%; in assay [4], -43.7%; in assay [5], -33.8%.
For `CC[C@@H]1C[C@]1(NC(=O)[C@@H]1C[C@@H]2CN1C(=O)[C@H](C(C)(C)C)NC(=O)OCC(C)(C)CCCCc1cccc3c1CN(C3)C(=O)O2)C(=O)NS(=O)(=O)C1CC1` the same measures were -1.79%, 24.1%, 11.7%, 2.99% and 12.5%.
Regarding `CC(C)Cn1c(=O)c2ccc(C(=O)NC3CCCCC3)cc2n2c(SCC(=O)NC(C)C)nnc12`, the activity change, negative = inhibition in assay [1] came to 8.48%; in assay [2], 1.28%; in assay [3] it was 11.3%; in assay [4] it was 2.41%; in assay [5] it was 5.03%.
The like results for `Cc1c(Cl)cccc1NC(=O)N1Cc2c(sc3c2CCCC3)-n2cccc2C1C(C)C` (stereo not given) were, in that order, -3.79%, -4.34%, 0.007%, -8.43% and -1.68%.
